This passage reports switch fluorescence ratio results from the supplement of paper PMC10126150.

Sequences with one replicate were seen in a single cluster, so their values are uncertain.
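Further: ATP exposure 15 min at 22 °C before imaging.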

For this series, the system named is ATP. As to the kind of experiment: switch fluorescence ratio, 500 uM ATP over buffer (Cy3 cluster intensity, sum of 5 cycles each) (fold (ratio)); higher = stronger signal-on switching upon ATP binding; sequences stand for … in TCGTCGGCAGCGTCAGATGTGTATAAGAGACAGTTTTTTTTTTTTTTTTTTTTTTTTT…TC. The note with it: aptamer strand: ATP DNA aptamer (quencher-CACCTGGGGGAGTATTGCGGAGGAAGG + anchor), 100 nM annealed; ATP concentration: 500 uM; one replicate. A digest of the protocol: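 Cy3-labelled switching-strand clusters on a modified Illumina MiSeq flow-cell were annealed to 100 nM quencher-labelled ATP aptamer, imaged in selection buffer, then imaged after 15 min with 500 uM ATP at 22 °C. Five buffer/ATP cycles ran, with NaOH stripping and re-annealing between them. The fluorescence ratio is summed target-cycle over summed buffer-cycle Cy3 intensity per cluster, averaged per switch-domain sequence. Clusters outside 100-1000 RFU were excluded.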
On to CTTCACGATC, for which the switch fluorescence ratio was found to be 1.26.

For TGCATCAGAT, the switch fluorescence ratio worked out at 1.01.

On to TGAAAAAACT, for which the switch fluorescence ratio came to 1.02.

In the case of TCGGCACACA, the switch fluorescence ratio was determined as 1.04.

As to TCCAGGTTGA, the switch fluorescence ratio is 1.26.

Consider TTGAGTATTA, for which the switch fluorescence ratio was 0.956.

For TTCTCTTGCT, the switch fluorescence ratio was 1.03.

As for GATGTCACT, the switch fluorescence ratio is 0.981.

For the sequence CGTGGTCGTA, the switch fluorescence ratio is 1.03.

Take ATGCCGGACG: the switch fluorescence ratio was found to be 0.988.

On to TGACAGCTAG, for which the switch fluorescence ratio came out at 1.06.

Take TCATATCTAT: the switch fluorescence ratio worked out at 1.

Take AACCTTCCAC: the switch fluorescence ratio turned out to be 2.86.

Take AACGGTACAC: the switch fluorescence ratio came out at 1.49.

For the sequence GCATGGGGGA, the switch fluorescence ratio amounted to 0.995.

For CGGGCTTAGG, the switch fluorescence ratio turned out to be 0.998.

For TGCCAGAACC, the switch fluorescence ratio was 1.04.

Consider CCAGAGCCCA, for which the switch fluorescence ratio was found to be 1.35.

Regarding AAGCGGCTAT, the switch fluorescence ratio was 1.02.

As to TACACCTAG, the switch fluorescence ratio stood at 1.02.

With CTTGCATTAT, the switch fluorescence ratio is 1.34.

For CTAACATGG, the switch fluorescence ratio worked out at 0.99.

For ATTTTGTAGA, the switch fluorescence ratio amounted to 1.07.

As for TGGTTCCCTC, the switch fluorescence ratio was found to be 0.962.

Consider GGGAAGTATT, for which the switch fluorescence ratio was 1.02.

For TTTGCATTAC, the switch fluorescence ratio was determined as 3.67.

For the sequence TCAAGCAAAG, the switch fluorescence ratio came out at 1.12.

For TTGATGTGTG, the switch fluorescence ratio is 1.

Take TCTGGTCGAG: the switch fluorescence ratio stood at 1.02.

For CAATAGAGTA, the switch fluorescence ratio was found to be 1.04.

Take CTTAGACCGG: the switch fluorescence ratio was found to be 1.01.

On to TACTGATTAT, for which the switch fluorescence ratio was 1.2.

Take TCCTCATTAG: the switch fluorescence ratio worked out at 1.2.

As for TTCAGTTATA, the switch fluorescence ratio worked out at 1.03.

Regarding TGTTAGTAAC, the switch fluorescence ratio came to 0.977.

As for GTTAGCAGGT, the switch fluorescence ratio was 1.01.

With AGATGCGGCC, the switch fluorescence ratio turned out to be 1.

In the case of TAATCGCCTC, the switch fluorescence ratio was 1.04.

Regarding CCTTAAACAA, the switch fluorescence ratio came out at 1.21.

For the sequence CATTTGGTAT, the switch fluorescence ratio turned out to be 0.97.

CAGTGCCCTT: the switch fluorescence ratio was determined as 1.02.

In the case of CTGGAGTCA, the switch fluorescence ratio was found to be 1.27.

Consider AAGGCGAAAC, for which the switch fluorescence ratio came out at 1.22.

As for TTGGCGAGTG, the switch fluorescence ratio was determined as 0.952.

In the case of ATCAGCAGAG, the switch fluorescence ratio came to 1.09.

CTGGCATTGT: the switch fluorescence ratio was 1.

Take ACCAGGATAG: the switch fluorescence ratio worked out at 1.07.

For the sequence GGGGCCCAGC, the switch fluorescence ratio turned out to be 0.961.

On to CGAACAGAAC, for which the switch fluorescence ratio is 1.1.

Consider GCGGAAGCGA, for which the switch fluorescence ratio worked out at 1.08.

In the case of CGTATATATT, the switch fluorescence ratio was 0.96.

As for TGTATAACAA, the switch fluorescence ratio is 1.

For the sequence ATACTTAGAC, the switch fluorescence ratio was 1.07.

On to CGATGAGGTG, for which the switch fluorescence ratio is 1.15.

For the sequence TGTAGCGGGT, the switch fluorescence ratio stood at 1.02.

As to TTCTGGTCGG, the switch fluorescence ratio worked out at 1.01.

ACCTAGTGAC: the switch fluorescence ratio is 1.09.

With CAACGCGGGA, the switch fluorescence ratio came out at 1.07.

In the case of TTAGACGAAC, the switch fluorescence ratio is 1.39.

GGCTAATATT: the switch fluorescence ratio turned out to be 1.02.

With CAAACCGTCG, the switch fluorescence ratio worked out at 1.11.

For the sequence GAAGTCTGCA, the switch fluorescence ratio was found to be 1.06.

Regarding TTAACGCGTG, the switch fluorescence ratio was 0.982.

Consider TAGAAGAACT, for which the switch fluorescence ratio stood at 1.

Take TGAGGAACGG: the switch fluorescence ratio worked out at 0.957.

Turning to TGGCAACGTG, the switch fluorescence ratio turned out to be 0.971.

As for CGCTGAATCT, the switch fluorescence ratio turned out to be 1.04.

With GTGACCGTAT, the switch fluorescence ratio was found to be 0.99.

For CGTTCGTTGG, the switch fluorescence ratio was found to be 0.993.

For the sequence ACAACCGAGC, the switch fluorescence ratio was 1.16.

GTTAGTTCGC: the switch fluorescence ratio amounted to 1.04.

Take TTTTGTGCGC: the switch fluorescence ratio came to 0.972.

With GGTTAAGG, the switch fluorescence ratio stood at 0.998.

As to TCTATGGGAT, the switch fluorescence ratio stood at 1.03.

Take CGTTAGAAAA: the switch fluorescence ratio worked out at 1.02.

For TGTTTCAAGG, the switch fluorescence ratio was 0.978.

For GATGTAACTA, the switch fluorescence ratio was determined as 1.02.

Consider GAAAGAGGTA, for which the switch fluorescence ratio was determined as 0.963.

Consider CTCGTTAATT, for which the switch fluorescence ratio is 1.03.

Take GCATCTGGGT: the switch fluorescence ratio turned out to be 1.03.

As for GACAAGGGTT, the switch fluorescence ratio amounted to 1.01.

As for CAAATGTGCG, the switch fluorescence ratio is 0.98.

Take ACACTCCGAC: the switch fluorescence ratio came to 1.81.

Regarding AGTAGCCACC, the switch fluorescence ratio was determined as 1.04.

As to GCTGATAGGA, the switch fluorescence ratio came to 1.

Regarding TGTATGCGT, the switch fluorescence ratio came out at 0.97.

Turning to ATACTCAATG, the switch fluorescence ratio turned out to be 1.03.

Regarding AGGTTACCTG, the switch fluorescence ratio turned out to be 1.03.

Regarding AGGGCGGACG, the switch fluorescence ratio was found to be 0.94.

As for ATAACTTGTG, the switch fluorescence ratio stood at 0.966.

Take GCGCAAGAAT: the switch fluorescence ratio came out at 1.02.

Consider TAGCAACTTT, for which the switch fluorescence ratio turned out to be 1.01.

Consider TTTCTCATC, for which the switch fluorescence ratio was found to be 0.955.

For AGGTGTTCTG, the switch fluorescence ratio was 0.956.

In the case of AACTTTGAGT, the switch fluorescence ratio was 1.03.

Take TTTAGATGTA: the switch fluorescence ratio was 1.01.

With GTAGCATCAT, the switch fluorescence ratio worked out at 1.06.

For the sequence TTGGTCTGCG, the switch fluorescence ratio came to 0.943.

Turning to CATTGTATGC, the switch fluorescence ratio was determined as 1.02.

Consider AAGTCAAGGA, for which the switch fluorescence ratio is 1.

Consider GCCGATATGA, for which the switch fluorescence ratio came to 0.977.

Regarding CACTTCTTT, the switch fluorescence ratio came to 0.978.

Regarding ATCTAGGGAT, the switch fluorescence ratio came to 1.

With GGACCAGCCT, the switch fluorescence ratio was found to be 1.09.

Turning to TCTTTTGGAC, the switch fluorescence ratio was determined as 1.

For the sequence ACAGCTTTCA, the switch fluorescence ratio came to 0.997.

As for AACAGTGAGA, the switch fluorescence ratio stood at 0.988.

ATATCTTACC: the switch fluorescence ratio came to 1.03.

As to GGATGCGCGT, the switch fluorescence ratio turned out to be 0.987.

As for ATATTTGTCG, the switch fluorescence ratio amounted to 1.01.

With AGAGACTGGG, the switch fluorescence ratio turned out to be 1.02.

On to GTTATTAGCA, for which the switch fluorescence ratio is 1.06.

TTACGATTGC: the switch fluorescence ratio was found to be 1.96.

AAAGGACTAC: the switch fluorescence ratio stood at 1.07.

As for CGACTACAGA, the switch fluorescence ratio came to 1.04.

For TGGTTCATGC, the switch fluorescence ratio came to 1.01.

For the sequence AGATAACGAG, the switch fluorescence ratio was found to be 0.988.

Take TTGATCAGTT: the switch fluorescence ratio worked out at 0.983.

Turning to CACCATGCTA, the switch fluorescence ratio was 0.974.

GTGCGAAGCG: the switch fluorescence ratio is 0.982.
